Data published in the RNAGym collection of RNA variant scans (doi:10.1093/nar/gkz1192).
The source gives no read counts; variants with many changes may rest on few reads.

B1: CPEB3 Ribozyme (parent)
chain: UAACAGGGGGCCACAGCAGAAGCGUUCACGUCGCAGCCCCUGUCAGAUUCUGGUGAAUCUGCGAAUUCUGCUGUAUAUCUC

Variants of: B1
Experiment: self-cleavage, relative activity (ratio to wild type); higher = more cleavage; in vitro, sequencing
Outline: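 After error-prone PCR and barcoding, CPEB3 ribozyme mutant libraries were transcribed with T7 RNA polymerase at 37°C for 5 hours, then given 15 min with DNase I before an EDTA stop, and they cleaved during both steps. Reverse transcription with template switching preceded Illumina sequencing. Relative activity divides a variant's cleaved/total read fraction by the unmutated ribozyme's. At least 5 reads were required per variant, and three batches were averaged.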

Variant	self-cleavage
G19U G24A U31C A64G U80C	0.09
G19A U26C U31C A35G	0.14
G19C C37U U41A	0.09
G19U A64U U76A	0.09
G19U U54A A56G	1.01
A20C U26A U48C U66C	0.24
A20C U25C A35U G46C	0.06
G19U U43C A64U	0.61
G19C U54A A57C U67C	0.06
G19A U31A U58C U72C	0.08
G19U A35U G46A U54C C71G	0.06
G19A U41C U58C U69C U78C	0.08
A20C U26A U72C U78C	0.24
G19C G36A A45G U48C U67C U78C	0.1
G19C C38U A56G	0.17
A20C U26G U43G	0.04
A20C A21G C39A U49A	0.05
G19C U48C U51C	0.15
G19A U41C U69C	0.08
G19C C34A A45U U54G A56G U78A	0.1
G19A U26C G36C G52A A57G U67C U80C	0.06
A20C U48C C50A U60C U72A	0.23
G19U A57G U60A U67C	0.07
G19U A35U A64G	0.15

Variant	self-cleavage
G19U A20G G55A U66C	0.04
G19A A45G G55A U67C U74C	0.16
G19C U26A U69G	0.09
G19C A20U U26A G46A U66A C79A	0.19
G19U A35C A75U	0.23
G19C U25A U26C A45U	0.17
G19C A21G U72A	0.14
G19U U41C U49C U72C	0.16
G19U A65U A75U	0.09
G19C G42U U43C U58G U80C	0.07
G19A U67C U72A	0.11
A20C A21G A28G	0.38
G19A U25C U41C U51C	0.04
G19U U31C U48C U78C	0.12
G19U C38U A56G U60A	0.08
A20C C29U U41C U43A A45G C59A U72C	0.06
G19A G33A U54C G70A U80C	0.08
A20C U25A U78C	0.07
G19C U25C A35G U43A A57G	0.06
A20C A45C U51A U78C	0.22
G19A U31C A64G U74G A75G	0.12
G19U G30A A45G A47U U67C	0.09
A20C A45C A65G U76C	0.16
G19C G33U U41A	0.19

Variant	self-cleavage
G19U U41C U66A G73U U80C	0.11
G19U U25C U41C C50U U60A	0.14
A20C A28G A47G	0.28
G19C U31C U60C	0.04
G19C A21G A57G A75U	0.31
G19C U43C U58G U80C	0.06
G19U U51A U69C	0.13
G19A U54C U72A	0.09
G19A C32U U54C A65G U80A	0.08
G19A U43A U54C	0.25
A20C A45G A56U U80C	0.39
G19C U51C C62U A64U	0.16
A20C C29U U51A G52U	0.17
G19U U41A U69A	0.11
G19A U43C U54C G55U U67A	0.1
G19C A28U G52A	0.23
G19U A28U U60A	0.1
A20C C27U A47G U51C A56U	0.04
G19A A45G U60A A65G U66A	0.07
A20C U54C U67C	0.14
G19U U43C A75U	0.19
G19U A21G U43C G55A A57G U58A	0.15
G19C C44A U72C U80C	0.07
G19C A28G U41C A45G	0.16

Variant	self-cleavage
A20C A21G U41G U49A	0.12
A20C U26C C37U	0.08
G19A U41C C62U A65G U69C	0.29
A20C U26C U31C U72C	0.08
G19U G24A A35U U72A	0.28
G19U U26C U69C	0.13
G19U A21C A56G U74G A75U U78C	0.07
A20G A21G A35G U43A	0.26
G19U U54C U58C	0.12
G19C U25C A35G A45G A57G A65G	0.06
G19U A28U A35G U43C U78A	0.07
A20C G22U C27G U43A U80A	0.06
G19A U58C A64G U74A	0.05
G19C U41C U60C U66A A77C	0.11
G19A A28U U41C G42C A56G A75G A77G	0.05
G19U G33U A45G	0.27
A20C A45C A65G U76C A77G	0.05
G19A U26A A35G U41C U78C	0.29
A20C U26C A28U C29U A45G C81U	0.08
G19U U26C G30U U43C U51A U60C	0.09
G19U U25A C27U A45U A57G	0.05
G19U A56U A64G	0.15
A20C U25C U69A U72A	0.05
G19A U25G U43C A57U U67C U80C	0.06

Variant	self-cleavage
A20C U25C A45G	0.09
G19A G33A U54A	0.08
G19U U49C U51C	0.09
G19C A35U U41C A77G	0.21
G19U U41C A65G G70A	0.35
G19U A45G U54C U66C	0.19
A20C C27U A47G U49A U51C A56U	0.16
G19U U48C A56U A64U	0.13
G19U U41C U69A	0.18
G19C U25C A35G A57G U58A	0.21
G19C U67C U80C	0.21
G19A U26C U41A U60A	0.07
G19C C29U U41A G46A A47G U54C	0.18
G19A A35G U43C U80C	0.3
G19A A56G U60A U69C	0.4
G19A U41C U51C U67A	0.17
A20C A28G A65U	0.05
G19U A35U U48C U76A	0.17
G19A A45G A47U A64U U66C U76C	0.03
A20C U48C A75U	0.42
G19U U41C U49C A56G U69A	0.08
G19U A35U A47G	0.2
A20C A45U U72C	0.49
G19C U25C A45U U60C A65C	0.16

Variant	self-cleavage
G19U A45U G46A C50U U51A U60C	0.14
G19U C32U C34G U43C G53A	0.05
A20C A28G G53C	0.27
A20C U26C U69C	0.22
G19U A35U A45G G46A A64G	0.14
A20G A21G A28U C44A	0.29
G19U A20G U43G U48G U60C U67A	0.09
A20C G24A U26C U69C	0.16
G19U C62U U69A	0.05
A20G A21G A28U U60A U69A U72C	0
G19A G30U C79U	0.17
G19C A20G U51C U72C U76C	0.13
G19C G30U U49A	0.11
A20C U54C U72C U80A	0.22
G19U U26C U41A	0.1
G19A C27G U41A U43A	0.23
A20C U26A U49C U72C U74C	0.07
A20C G30A C44U A64U	0.11
G19C G42A U58C U67C	0.08
G19U G33A C37G U41C U80C	0.06
G19A U25C A47G A64G	0.29
G19U C32U U49C U58C U67C U78C C81U	0.06
G19C C32U U48C U58C U72C A75U	0.08
G19A C34U U60A U80C	0.05

Variant	self-cleavage
A20C C34U A77U	0.12
A20C C27U U41C A47G U51C A56U	0.25
G19A A47U A64U A75U	0.13
A20C U69C U72A	0.09
G19U U26C U72A U78C	0.13
G19A U51C A57G A65C U69C C79G	0.09
G19A U51C U54C	0.13
G19C C32G U78C	0.06
G19C A21G U43G U48C U72A A75G	0.3
A20C U31C A45U C62A A64C	0.05
G19U U60C U69C U74C A75G	0.07
G19U U49C G70A	0.53
A20G A21G A35G A47G U48C U51C U69C	0.28
G19A U25C U41C U72C	0.22
G19A U54C U66C	0.09
G19A U41C U48C U51C U60C U76A	0.15
G19U U41A U43C	0.22
G19A U25C U54C A64U U74C	0.06
G19C A57C U67C	0.11
G19U U25C U31C A64G A65U	0.1
G19A U41C U54A U60C	0.17
G19C A20G A35C A45C U54A	0.17
G19U G55A A65U C68U A77U U78C	0.08
